This is an account of results in article PMC3701669.

Sequences and labels used below:
T1: GST-LHX3a (full-length LHX3 protein) (human) (UniProt Q9UBR4)
T1 sequence: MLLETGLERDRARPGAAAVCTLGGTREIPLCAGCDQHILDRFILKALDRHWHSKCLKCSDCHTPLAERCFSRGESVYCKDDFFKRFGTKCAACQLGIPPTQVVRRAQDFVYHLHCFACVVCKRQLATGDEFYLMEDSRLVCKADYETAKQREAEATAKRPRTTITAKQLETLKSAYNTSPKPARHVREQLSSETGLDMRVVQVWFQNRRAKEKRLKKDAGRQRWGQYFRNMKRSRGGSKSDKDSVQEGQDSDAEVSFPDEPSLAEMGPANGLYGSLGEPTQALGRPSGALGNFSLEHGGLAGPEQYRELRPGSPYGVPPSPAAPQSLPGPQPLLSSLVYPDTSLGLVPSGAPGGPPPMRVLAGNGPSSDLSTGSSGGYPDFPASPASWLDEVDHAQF

B1: LANP deletion construct, amino acids 1–189 (domain or fragment, UniProt P39687 1-189)
chain: MEMGRRIHLELRNRTPSDVKELVLDNSRSNEGKLEGLTDEFEELEFLSTINVGLTSIANLPKLNKLKKLELSDNRVSGGLEVLAEKCPNLTHLNLSGNKIKDLSTIEPLKKLENLKSLDLFNCEVTNLNDYRENVFKLLPQLTYLDGYDRDDKEAPDSDAEGYVEGLDDEEEDEDEEEYDEDAQVVEDE
modifications: 35S-methionine or 35S-cysteine label
B2: LANP deletion construct, amino acids 1–180 (domain or fragment, UniProt P39687 1-180)
chain: MEMGRRIHLELRNRTPSDVKELVLDNSRSNEGKLEGLTDEFEELEFLSTINVGLTSIANLPKLNKLKKLELSDNRVSGGLEVLAEKCPNLTHLNLSGNKIKDLSTIEPLKKLENLKSLDLFNCEVTNLNDYRENVFKLLPQLTYLDGYDRDDKEAPDSDAEGYVEGLDDEEEDEDEEEYD
modifications: 35S-methionine or 35S-cysteine label
B3: LANP deletion construct, amino acids 150–249 (domain or fragment, UniProt P39687 150-249)
chain: RDDKEAPDSDAEGYVEGLDDEEEDEDEEEYDEDAQVVEDEEDEDEEEEGEEEDVSGEEEEDEEGYNDGEVDDEEDEEELGEEERGQKRKREPEDEGEDDD
modifications: 35S-methionine or 35S-cysteine label
B4: LANP deletion construct, amino acids 60–249 (domain or fragment, UniProt P39687 60-249)
chain: LPKLNKLKKLELSDNRVSGGLEVLAEKCPNLTHLNLSGNKIKDLSTIEPLKKLENLKSLDLFNCEVTNLNDYRENVFKLLPQLTYLDGYDRDDKEAPDSDAEGYVEGLDDEEEDEDEEEYDEDAQVVEDEEDEDEEEEGEEEDVSGEEEEDEEGYNDGEVDDEEDEEELGEEERGQKRKREPEDEGEDDD
modifications: 35S-methionine or 35S-cysteine label
B5: LANP INHATII domain (amino acids 190–249) (domain or fragment, UniProt P39687 190-249)
chain: EDEDEEEEGEEEDVSGEEEEDEEGYNDGEVDDEEDEEELGEEERGQKRKREPEDEGEDDD
modifications: 35S-methionine or 35S-cysteine label
B6: LANP deletion construct, amino acids 120–249 (domain or fragment, UniProt P39687 120-249)
chain: LFNCEVTNLNDYRENVFKLLPQLTYLDGYDRDDKEAPDSDAEGYVEGLDDEEEDEDEEEYDEDAQVVEDEEDEDEEEEGEEEDVSGEEEEDEEGYNDGEVDDEEDEEELGEEERGQKRKREPEDEGEDDD
modifications: 35S-methionine or 35S-cysteine label
B7: LANP deletion construct, amino acids 1–150 (domain or fragment, UniProt P39687 1-150)
chain: MEMGRRIHLELRNRTPSDVKELVLDNSRSNEGKLEGLTDEFEELEFLSTINVGLTSIANLPKLNKLKKLELSDNRVSGGLEVLAEKCPNLTHLNLSGNKIKDLSTIEPLKKLENLKSLDLFNCEVTNLNDYRENVFKLLPQLTYLDGYDR
modifications: 35S-methionine or 35S-cysteine label

These are yes or no findings as the source states them, for the method shown. Binding seen in cells or lysates may run through a third protein. Some entries that bind do so weakly or less than the wild type. Sequences can lack the tags named with a protein.

The assay addresses T1, GST-LHX3a (full-length LHX3 protein) (human). As to the kind of experiment: pull-down; GST-LHX3 fusion on glutathione-agarose resin; 200,000 cpm of 35S-labeled in vitro translated protein (rabbit reticulocyte lysate or wheat germ extract); 20 mM HEPES pH 7.9, 300 mM NaCl, 1 mM EDTA, 4 mM MgCl2, 0.02% NP-40, 10% glycerol, 1 mM ZnCl2, 1 mM DTT, 20 µg/ml ethidium bromide; 1 hour at 4°C; SDS-PAGE, autoradiography; GST alone as control; only the target purified.
For the molecule B1, the binding result is “no binding”.

As for B2, the binding result is on record as “no binding”.

On to B3, for which the binding result was “binds”.

Turning to B4, the binding entry was “binds”.

Turning to B5, the binding result was “no binding”.

Consider B6, for which the binding result is listed as “binds”.

With B7, the binding result is “no binding”.
